# Laboratory results as given in the supplement of paper PMC9446081.
# Among all 39,000 compounds or so, about 220 (0.56%) showed activity. This is one part of the list.
# Test system: Escherichia coli K-12 BW25113
# Test: relative growth (OD600 normalised to plate interquartile mean) (fraction); higher = less growth inhibition, active = 0.2 or less
# Conditions: 50 µM; LB; incubation time: overnight (16-24 h)
# 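Note: static incubation at 37 °C against the wild-type strain, values averaged over two biological replicates.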
row,SMILES,relative growth
1,CC(C)[C@@H](CS(=O)(=O)C(C)C)N1C(=O)[C@@](C)(CC(=O)O)C[C@H](c2cccc(Cl)c2)[C@H]1c1ccc(Cl)cc1,inactive: 1
2,C[C@@H]1CN([C@H](C)CO)C(=O)c2cccc(NC(=O)c3ccncc3)c2O[C@@H]1CN(C)Cc1ccc(-c2ccccc2)cc1,inactive: 0.996
3,Cc1noc(C)c1S(=O)(=O)N(C)C[C@H]1OCCCC[C@H](C)Oc2ccc(NC(=O)Nc3ccc(F)cc3)cc2C(=O)N([C@@H](C)CO)C[C@@H]1C,inactive: 1.03
4,O=C(C[C@H]1C[C@H]2c3cc(NC(=O)Nc4ccc(C(F)(F)F)cc4)ccc3O[C@H]2[C@H](CO)O1)NCc1ccc(Cl)cc1,inactive: 0.973
5,C[C@@H]1CN([C@H](C)CO)C(=O)c2c(c3ccccc3n2C)-c2ccccc2CO[C@@H]1CN(C)Cc1ccc(Oc2ccccc2)cc1,inactive: 1.01
6,CN(C)CCCNC(=O)C[C@@H]1CC[C@H]2[C@@H](COc3ccc(NC(=O)c4ccc5c(c4)OCO5)cc3C(=O)N2C)O1,inactive: 0.996
7,Cc1noc(C)c1NC(=O)Nc1ccc2c(c1)C(=O)N([C@H](C)CO)C[C@@H](C)[C@@H](CN(C)C(=O)Nc1ccccc1)OCCCC[C@@H](C)O2,inactive: 1.02
8,CO[C@H]1CN(C)C(=O)c2ccc(NC(=O)c3ccccc3)cc2OC[C@@H](C)N(C(=O)CN(C)C)C[C@@H]1C,inactive: 0.994
9,Cc1cc(C(=O)Nc2cccc3c2O[C@@H](CN(C)Cc2ccncc2)[C@@H](C)CN([C@H](C)CO)C3=O)n(C)n1,inactive: 1
10,C[C@H](CO)N1C[C@H](C)[C@@H](CN(C)Cc2ccc(Oc3ccccc3)cc2)Oc2ccc(NC(=O)NC3CCCCC3)cc2C1=O,inactive: 1.01
11,Cc1ccc(S(=O)(=O)Nc2ccc3c(c2)C(=O)N([C@@H](C)CO)C[C@@H](C)[C@H](CN(C)C(=O)Cc2ccccc2)OCCCC[C@@H](C)O3)cc1,inactive: 1.01
12,COc1ccc2nccc(Cl)c2c1,inactive: 0.986
13,O=C(NCCn1ncc2c(=O)n(Cc3ccccc3)cnc21)c1ccc(S(=O)(=O)N2CCOCC2)cc1,inactive: 0.985
14,C[C@H]1CN([C@@H](C)CO)C(=O)c2cc(C#Cc3cccc(F)c3)cnc2O[C@H]1CN(C)C(=O)C1CCOCC1,inactive: 0.823
15,C[C@@H]1CCCCO[C@@H](CN(C)CC2CCCCC2)[C@@H](C)CN([C@H](C)CO)C(=O)c2cc(NC(=O)CCCN(C)C)ccc2O1,inactive: 0.982
16,Cc1ccc(S(=O)(=O)N(C)C[C@@H]2OCCCC[C@@H](C)Oc3ccc(NC(=O)Nc4ccc(C(F)(F)F)cc4)cc3C(=O)N([C@H](C)CO)C[C@H]2C)cc1,inactive: 0.983
17,C[C@@H]1CN([C@H](C)CO)S(=O)(=O)c2ccc(-c3ccc(C(=O)N(C)C)cc3)cc2O[C@H]1CN(C)C(=O)C1CCC1,inactive: 0.987
18,C[C@H]1CN([C@@H](C)CO)C(=O)c2cc(NC(=O)c3ccncc3)ccc2O[C@H]1CN(C)C(=O)Nc1ccc2c(c1)OCO2,inactive: 1
19,C[C@H]1CN([C@@H](C)CO)C(=O)c2cc(NC(=O)Cc3ccccc3)ccc2O[C@H]1CN(C)Cc1ccc(C(=O)Nc2ccccc2N)cc1,inactive: 1.01
20,COc1ccc(NC(=O)N(C)C[C@@H]2Oc3ccc(NS(=O)(=O)c4c(C)noc4C)cc3C(=O)N([C@@H](C)CO)C[C@@H]2C)cc1,inactive: 0.997

row,SMILES,relative growth
1,Cc1ccc(S(=O)(=O)N(C)C[C@@H]2Oc3c(NS(=O)(=O)c4ccc(F)cc4)cccc3C(=O)N([C@@H](C)CO)C[C@@H]2C)cc1,inactive: 1.01
2,COc1ccc(CN(C)C[C@@H]2OCCCC[C@@H](C)Oc3ccc(NC(=O)Nc4ccc5c(c4)OCO5)cc3C(=O)N([C@H](C)CO)C[C@H]2C)cc1,inactive: 1
3,Oc1cc(O)cc(O)c1,inactive: 1
4,COc1ccc(S(=O)(=O)Nc2ccc3c(c2)CC(=O)N([C@@H](C)CO)C[C@@H](C)[C@H](CN(C)S(=O)(=O)c2ccccc2)O3)cc1,inactive: 1.01
5,CCc1c(O)cc(O)c(C(=O)c2ccc(OCCN3CCOCC3)c(OC)c2)c1CC(=O)N(CCOC)CCOC,inactive: 0.937
6,CC(C)(C)NCCCCOc1ccc(Cl)cc1C(C)(C)C,inactive: 0.798
7,C[C@H]1CCCCO[C@@H](CN(C)Cc2ccc(C(F)(F)F)cc2)[C@@H](C)CN([C@@H](C)CO)C(=O)c2cc(NS(=O)(=O)c3cn(C)cn3)ccc2O1,inactive: 0.987
8,CC(C)NC(=O)N(C)C[C@H]1OCCCC[C@@H](C)Oc2ccc(NC(=O)Nc3ccccc3)cc2C(=O)N([C@H](C)CO)C[C@@H]1C,inactive: 0.992
9,COc1ccc(CN(C)C[C@@H]2OCCCC[C@@H](C)Oc3ccc(NS(=O)(=O)c4ccc(C)cc4)cc3C(=O)N([C@H](C)CO)C[C@@H]2C)cc1,inactive: 0.971
10,CO[C@@H]1[C@H](O[P@@](=O)(OC[C@H]2O[C@@H](n3cnc4c(N)ncnc43)C[C@@H]2O)SCOC(=O)OC(C)C)[C@@H](CO)O[C@H]1n1ccc(=O)[nH]c1=O,inactive: 1.01
11,COc1ccc(OC)c(C(O)CNC(=O)CN)c1.Cl (stereo not drawn),inactive: 1.12
12,Cc1cc(C(=O)O)c(C#N)c(N)n1,inactive: 0.955
13,C[C@H]1CN([C@@H](C)CO)C(=O)c2cccc(NC(=O)Nc3ccc(F)cc3)c2O[C@H]1CN(C)Cc1ccc(C(F)(F)F)cc1,inactive: 1.01
14,COc1c(OCCCN2CCOCC2)ccc2c1N=C(NC(=O)c1cnc(N)nc1)N1CCN=C21,inactive: 0.996
15,C[C@H](CO)N1C[C@H](C)[C@@H](CN(C)CC2CCCCC2)Oc2ccc(NS(=O)(=O)c3cn(C)cn3)cc2CC1=O,inactive: 1.03
16,COc1ccc(S(=O)(=O)Nc2ccc3c(c2)C(=O)N([C@H](C)CO)C[C@@H](C)[C@H](CN(C)Cc2ccncc2)O3)cc1,inactive: 0.987
17,C[C@@H]1CCCCO[C@H](CN(C)Cc2ccc(Cl)c(Cl)c2)[C@@H](C)CN([C@@H](C)CO)C(=O)c2cc(NS(=O)(=O)c3ccc(Cl)cc3)ccc2O1,inactive: 1.03
18,C[C@@H]1CN([C@H](C)CO)C(=O)c2cc(NS(=O)(=O)c3ccccc3)ccc2O[C@@H](C)CCCCO[C@H]1CN(C)C(=O)Nc1ccc2c(c1)OCO2,inactive: 1.02
19,COc1ccc(cc1)NC(=O)N1CC[C@]2(CC1)CN([C@H](CO)c1[nH]c3cc(ccc3c12)OC)C(=O)CN1CCOCC1,inactive: 1
20,CCS(=O)(=O)Nc1ccc2c(c1)C(=O)N(C)[C@H]1CC[C@@H](CC(=O)N[C@@H]3CCN(Cc4ccccc4)C3)O[C@@H]1CO2,inactive: 1

row,SMILES,relative growth
1,C[C@H](CO)N1C[C@H](C)[C@H](CN(C)C(=O)Nc2ccc(F)cc2)Oc2c(NS(=O)(=O)c3cn(C)cn3)cccc2C1=O,inactive: 0.979
2,C[C@H](CO)N1C[C@H](C)[C@@H](CN(C)CC2CCCCC2)OCCCC[C@H](C)Oc2ccc(NC(=O)c3ccccc3)cc2C1=O,inactive: 0.946
3,COc1ccc(S(=O)(=O)Nc2ccc3c(c2)C(=O)N([C@H](C)CO)C[C@H](C)[C@@H](CN(C)C(=O)CCC(F)(F)F)OCCCC[C@H](C)O3)cc1,inactive: 0.993
4,COc1ccc(CN(c2ncns2)S(=O)(=O)c2ccc(Oc3c(F)cc(F)cc3-c3ccnn3C)c(C#N)c2)c(OC)c1,inactive: 0.995
5,C[C@@H]1CN([C@H](C)CO)C(=O)c2cc(-c3cccc(C#N)c3)cnc2O[C@@H]1CN(C)C(=O)c1cnccn1,inactive: 0.999
6,C[C@H](CO)N1C[C@H](C)[C@H](CN(C)C(=O)C2CCOCC2)Oc2ncc(/C=C/c3ccccc3)cc2C1=O,inactive: 1
7,Cc1ccc(S(=O)(=O)Nc2ccc3c(c2)C(=O)N([C@H](C)CO)C[C@H](C)[C@H](CN(C)C(=O)Nc2cccc4ccccc24)O3)cc1,inactive: 0.993
8,C[C@H](O)C#Cc1ccc2c(c1)O[C@@H](CN(C)C(=O)c1ccccc1)[C@H](C)CN([C@H](C)CO)S2(=O)=O,inactive: 1.01
9,COc1ccc(CNC(=O)C[C@H]2CC[C@@H]3[C@H](COc4ccc(NC(=O)C(C)C)cc4C(=O)N3C)O2)cc1,inactive: 1
10,C[C@H]1CCCCO[C@H](CN(C)S(=O)(=O)c2ccc(F)cc2)[C@@H](C)CN([C@@H](C)CO)C(=O)c2cc(NC(=O)NC3CCCCC3)ccc2O1,inactive: 0.986
11,CCOC(=O)c1cc2c(c(-c3ccccc3)n1)[C@@H](CCO[Si](C)(C)C(C)(C)C)N(S(=O)(=O)C(C)(C)C)C2,inactive: 1.08
12,C[C@@H]1CN([C@H](C)CO)S(=O)(=O)c2ccc(C#Cc3ccccc3F)cc2O[C@H]1CN(C)CC1CCOCC1,inactive: 0.999
13,C[C@@H]1C[C@H](C)CN(S(=O)(=O)N2CCC[C@H](C(=O)NCCN3CCOCC3)C2)C1,inactive: 0.929
14,COc1ccc(CN(C)C[C@@H]2Oc3ccc(NC(=O)C4CC4)cc3CC(=O)N([C@H](C)CO)C[C@@H]2C)cc1,inactive: 1.01
15,COc1ccc(C#Cc2cnc3c(c2)C(=O)N([C@H](C)CO)C[C@@H](C)[C@@H](CN(C)CC2CCOCC2)O3)cc1,inactive: 1.02
16,C=CCN1C(=O)[C@]2(O[C@H](CCn3cc([C@H](O)c4ccccc4)nn3)[C@@H]([Si](C)(C)c3ccc(OC)cc3)[C@@H]2C)c2ccccc21,inactive: 1.04
17,Cc1noc(C)c1S(=O)(=O)Nc1ccc2c(c1)C(=O)N([C@H](C)CO)C[C@@H](C)[C@@H](CN(C)S(=O)(=O)c1cn(C)cn1)OCCCC[C@H](C)O2,inactive: 0.984
18,CN(C)CC(=O)N1CC2(C1)[C@@H](c1ccccc1)[C@@H](CO)N2S(C)(=O)=O,inactive: 0.97
